This passage reports Tm shift activity results from PubChem BioAssay AID687022 (Broad Institute, 2013).

Hit rate of the full screen: of about 1,000 compounds, about 360 (36%) were called active.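 The calls were made as follows: active = Fitted curve of melting temperature shift crosses the 1.0 threshold at or below the sample's highest valid tested concentration; inconclusive = Flat fit with activity 30 to 70, or invalid fit; inactive = Opposite direction, flat within 30, or no crossing.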 This part holds few or none of the hits.

The test concerns the target Fibroblast growth factor 22 (Homo sapiens) (UniProt Q9HCT0). The experiment in a line: FGF22 ligand-induced thermal stabilization – biophysical, thermal shift, cherry-pick, FGF22 synaptogenesis inhibitor project, dose response (AID 687022). Also: reference of the scale not given here. Particulars: recombinant FGF22 thermal shift, SYPRO orange melting; at 38 µM (top of the series) unless noted.
Sequence of UniProt Q9HCT0 (Q9HCT0 whole entry, looked up): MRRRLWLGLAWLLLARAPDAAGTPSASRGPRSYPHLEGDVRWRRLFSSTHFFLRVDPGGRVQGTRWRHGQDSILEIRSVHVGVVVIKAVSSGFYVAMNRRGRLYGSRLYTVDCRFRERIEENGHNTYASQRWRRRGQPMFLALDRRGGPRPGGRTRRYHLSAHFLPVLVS
Take `CN1C(=O)NC(NS(=O)(=O)c2ccc(N)cc2)(C(F)(F)F)C1=O` (centres undefined): the Tm shift activity was inactive: -0.004%. With `O=C(c1ccccn1)N1C[C@H]2[C@@H](c3ccccc31)[C@@H](CO)N2C(=O)c1ccccn1`, the Tm shift activity is inactive: 0.048% [at 42 µM]. The value for `CCCCNC(=O)C1(C)CCCCN1C(=O)c1c(F)ccc(C)c1F` (centres undefined) was inactive: -0.15%; that for `O=C(c1cccc(F)c1)N1C[C@@H]2[C@H](c3ccccc31)[C@H](CO)N2C(=O)C1CCCCC1` was inactive: -0.034% [at 42 µM]; that for `CC(C)CC#Cc1cnc2c(c1)C(=O)N([C@@H](C)CO)C[C@H](C)[C@@H](CN(C)Cc1ccccn1)O2` was inactive: 0.044%. With `Cc1ccc(NC(=O)c2ccc(S(=O)(=O)NCc3cccnc3)cc2)c(C)c1` the figure was inactive: -0.175%. As to `CC1(c2ccc3ccccc3c2)NC(=O)N(CC(=O)Nc2ncccc2O)C1=O` (centres undefined), the Tm shift activity was inactive: -0.237%. With `O=C(C[C@H]1CC[C@@H](NC(=O)Nc2cc(F)ccc2F)[C@@H](CO)O1)Nc1ccc(-c2ccccc2)cc1` the figure was inactive: 0.124% [at 42 µM]; with `Cc1ccc(NC(=O)COC(=O)Cn2cnc3c2c(=O)n(C)c(=O)n3C)cc1F`, inactive: -1.53%. With `CC(=O)N1[C@@H](CO)[C@@H]2c3ccccc3N(C(=O)c3ccc(F)cc3)C[C@@H]21` the figure was inactive: -0.181%. The value for `Cc1ccc(N(C(=O)c2csnn2)C(C(=O)NC2CCCC2)c2ccccn2)c(C)c1` (centres undefined) was inactive: 0.564%; that for `C[C@H](CO)N1C[C@H](C)[C@H](CN(C)CC2CCCCC2)Oc2c(NC(=O)Nc3ccc4c(c3)OCO4)cccc2C1=O` was inactive: -0.569%; that for `C[C@H](NC(=O)C[C@@H]1CC[C@@H]2[C@H](COC[C@@H](O)CN2C(=O)Nc2cccc(Cl)c2)O1)c1ccccc1` was inactive: 1.03%. Regarding `CN1/C(=C\C(=O)c2cccc([N+](=O)[O-])c2)Sc2ccccc21`, the Tm shift activity was inactive: -0.16%. With `Cc1ccccc1-c1ccccc1[C@@H]1[C@@H](C#N)N(C(=O)c2ccccc2)[C@H]1CO`, the Tm shift activity is inactive: -0.262%. The value for `CN1C(=O)c2cc(NC(=O)c3ccccc3Cl)ccc2OC[C@@H]2O[C@@H](CC(=O)NCC(F)(F)F)CC[C@H]21` was inactive: 0.085%; that for `CS(=O)(=O)N1CCCCN2[C@H](CO)[C@H](c3ccc(C#Cc4ccccn4)cc3)[C@@H]2C1` was inactive: 0.054% [at 42 µM]. The value for `O=C(c1ccc2c(c1)OCO2)N1CC(=O)N2[C@@H](CO)[C@H](c3ccc(C#CCC4CCCC4)cc3)[C@@H]2C1` was inactive: 0.181%; that for `CC(=O)Nc1cc(-c2ccccc2Cl)cn2c(-c3ccc(S(C)(=O)=O)cc3)cnc12` was inactive: -0.375%. With `O=C(O/N=C1\CCCc2ccccc21)C1CC1` the figure was inactive: -0.196%; with `C[C@@H]1CN([C@H](C)CO)C(=O)c2cc(NC(=O)Cc3cn(C)c4ccccc34)ccc2O[C@@H]1CN(C)S(=O)(=O)c1ccccc1`, inactive: 0.402%. As for `Cc1ccccc1C(=O)NCC(=O)OC(C)C(=O)Nc1cccc(S(=O)(=O)N2CCOCC2)c1` (centres undefined), the Tm shift activity was inactive: -2.68%. As to `COC(=O)C[C@@H]1CC[C@H]2[C@@H](COc3ccc(NC(=O)NC(C)C)cc3C(=O)N2C)O1`, the Tm shift activity is inactive: 0.058%. The value for `COc1ccc(CN(C)C[C@@H]2Oc3ccc(NC(=O)NC(C)C)cc3C(=O)N([C@H](C)CO)C[C@@H]2C)cc1` was inactive: 0% [at 42 µM].

For the compound `CC(C)NC(=O)Nc1ccc2c(c1)C(=O)N([C@H](C)CO)C[C@H](C)[C@@H](CN(C)C(=O)NC(C)C)O2`, the Tm shift activity is inactive: 0.003%. As for `CCCC(=O)Nc1ccc(C(=O)Nc2ccc([N+](=O)[O-])cc2OC)cc1`, the Tm shift activity is inactive: 0.142%. The value for `C[C@H](CO)N1C[C@H](C)[C@@H](CN(C)C(=O)OCc2ccccc2)OCc2cn(nn2)CCCC1=O` was inactive: 0.212%; that for `O=C(NCC[C@H]1CC[C@@H](NC(=O)C2CCOCC2)[C@@H](CO)O1)Nc1ccc(Cl)cc1` was inactive: 0.267% [at 42 µM]. With `CNC[C@H]1OCCCC[C@@H](C)Oc2ccc(NC(=O)Nc3ccc(C(F)(F)F)cc3)cc2C(=O)N([C@H](C)CO)C[C@@H]1C`, the Tm shift activity is inactive: -0.635% [at 42 µM]. On to `COc1ccc(NC(=O)N(C)C[C@@H]2Oc3ccc(NS(C)(=O)=O)cc3CC(=O)N([C@@H](C)CO)C[C@H]2C)cc1`, for which the Tm shift activity was inactive: -0.142% [at 42 µM]. For `O=C(c1ccccc1)N1CC(=O)N2[C@H](C1)[C@@H](c1ccc(C#CC3CC3)cc1)[C@@H]2CO`, the Tm shift activity was inactive: -0.399% [at 42 µM].

For `CCc1ccc(C(=O)NNC(=O)c2cccc(N3C(=O)CCC3=O)c2)cc1`, the Tm shift activity is inactive: 0.024%.

For the compound `O=C(O)CCN(Cc1ccccc1)S(=O)(=O)c1ccccc1Cl`, the Tm shift activity was inactive: -0.042%. With `O=C(C1CC1)N1CC2(C1)[C@H](c1ccccc1)[C@@H](CO)N2Cc1ccc(Cl)cc1` the figure was inactive: -0.221% [at 42 µM].

Consider `COCC(=O)N1CC(=O)N2[C@H](CO)[C@H](c3ccc(Br)cc3)[C@H]2C1`, for which the Tm shift activity was inactive: -0.099%. Turning to `O=C(C[C@H]1CC[C@@H]2[C@H](COC[C@H](O)CN2Cc2cc(F)ccc2F)O1)NCc1ccc(F)cc1`, the Tm shift activity was inactive: -0.438% [at 42 µM]. As to `CCc1ccc(C(=O)NCc2cnn(C)c2)s1`, the Tm shift activity is inactive: -0.042%.

For `O=C(CC1CC1)N1CC2(C1)[C@H](c1ccccc1)[C@H](CO)N2C(=O)c1cnccn1`, the Tm shift activity was inactive: -0.016% [at 42 µM]. With `Oc1c(CN2CCOCC2)cc(CN2CCOCC2)c(O)c1O`, the Tm shift activity is inactive: 0.514%. The value for `CC(=O)Nc1ccc(C(=O)N/N=C/c2cc(Br)cc(Br)c2O)cc1` was inactive: 0.474%; that for `O=C(Nc1ccc(S(=O)(=O)Nc2ccccn2)cc1)c1cccc([N+](=O)[O-])c1` was inactive: -0.171%; that for `COc1ccc2c3c([nH]c2c1)[C@H](CO)N(C(=O)Nc1ccc(F)cc1)CC31CCN(S(=O)(=O)c2cccs2)CC1` was inactive: -0.117% [at 42 µM].

For `COc1cc(C)ccc1NC(=O)Cc1csc(NC(=O)Nc2ccccc2OC)n1`, the Tm shift activity was inactive: 0.619%. With `COc1cc2oc(-c3ccc(O)cc3)cc(=O)c2c(O)c1OC` the figure was inactive: 0.803%; with `C[C@@H]1CN([C@@H](C)CO)C(=O)c2cc(NC(=O)C3CC3)ccc2O[C@@H]1CN(C)C(=O)Nc1ccc2c(c1)OCO2`, inactive: 0.089% [at 42 µM]; with `O=C(O)c1cc2cccc(S(=O)(=O)N3CCCCC3)c2cc1O`, inactive: 0.828% [at 5 µM]. Take `CCCN1C[C@H](C)[C@H](OC)CN(C)C(=O)c2cc(NC(=O)c3cnccn3)ccc2OC[C@@H]1C`: the Tm shift activity is inactive: -0.196%. The value for `COc1ccccc1-c1cnc2c(c1)C(=O)N([C@@H](C)CO)C[C@H](C)[C@H](CN(C)C(=O)c1cccnc1)O2` was inactive: 0.195%; that for `COCC(=O)N(C)C[C@H]1Oc2cc(C#Cc3ccccc3)ccc2S(=O)(=O)N([C@H](C)CO)C[C@H]1C` was inactive: 0.274% [at 42 µM]; that for `Cc1nc(NC(=O)C2CC2)sc1C(=O)Nc1ccccc1Cl` was inactive: -0.05%.

`Cn1cnc(S(=O)(=O)N2C[C@H](O)COC[C@@H]3O[C@@H](CC(=O)NCc4ccc(F)cc4)CC[C@H]32)c1`: the Tm shift activity is inactive: -0.209% [at 42 µM]. For the compound `COc1ccc(CN(C)C[C@H]2Oc3c(NS(C)(=O)=O)cccc3C(=O)N([C@@H](C)CO)C[C@H]2C)cc1`, the Tm shift activity was inactive: 0.721%. For the compound `COCC(=O)Nc1ccc2c(c1)[C@@H]1C[C@@H](CC(=O)NCc3ccccn3)O[C@@H](CO)[C@@H]1O2`, the Tm shift activity was inactive: -0.139% [at 42 µM]. The value for `C[C@@H]1CN([C@@H](C)CO)C(=O)CCCn2nncc2CO[C@@H]1CN(C)S(=O)(=O)c1ccc(F)cc1` was inactive: 0.073% [at 42 µM]. As for `COc1ccc(C(C)(NC(C)=O)c2nc(-c3ccncc3)cs2)cc1` (centres undefined), the Tm shift activity was inactive: -0.006%. The value for `CC(C)(C)N1C(=O)c2c(C(=O)OCc3ccccc3)[nH]c(-c3ccccc3)c2C1=O` was inactive: -0.306%; that for `CN1C(=O)c2cccc3c(N)ccc(c23)C1=O` was inactive: 0.027% [at 5 µM].

With `CCC(=O)N1CCCCN2[C@H](CO)[C@@H](c3ccc(C#Cc4ccccc4F)cc3)[C@H]2C1`, the Tm shift activity was inactive: -0.546% [at 42 µM]. The value for `COc1ccc(C2=NN(c3ccccc3)C(c3cn(CCC(=O)O)nc3-c3ccccc3)C2)cc1` (centres undefined) was inactive: -0.245% [at 19.5 µM]; that for `O=C(Nc1cccc(F)c1)N1CC(=O)N2[C@@H](CO)[C@@H](c3ccc(Br)cc3)[C@@H]2C1` was inactive: 0.352% [at 42 µM]; that for `CC(C)C(c1nnnn1CCc1ccccc1)N1CCSCC1` (centres undefined) was inactive: -0.187%.

On to `COc1ccc(NC(=O)N(C)C[C@@H]2Oc3ccc(NS(=O)(=O)c4cccs4)cc3CC(=O)N([C@H](C)CO)C[C@H]2C)cc1`, for which the Tm shift activity was inactive: -0.023%.

For `O=C(COc1cccc(Cl)c1)NCC(c1cccs1)N1CCOCC1` (centres undefined), the Tm shift activity was inactive: -0.157%. In the case of `COc1cc([N+](=O)[O-])ccc1NC(=O)Nc1ccc2c(c1)OCCO2`, the Tm shift activity is inactive: 0.262%.

As for `CCN(CCn1cccn1)C(=O)CCc1nnc(Cc2c[nH]c3ccccc23)o1`, the Tm shift activity was inactive: 0.068%. Regarding `COc1ccc(OC(C)C(=O)N(C)Cc2nc(-c3cccc(C)c3)no2)cc1` (centres undefined), the Tm shift activity was inactive: -0.224%.

On to `CC1(C(=O)O)CCN1C(=O)c1ccccc1F` (centres undefined), for which the Tm shift activity is inactive: -0.171%. With `O=C(C[C@H]1C[C@H]2c3cc(NC(=O)NC4CCCC4)ccc3O[C@H]2[C@@H](CO)O1)NCCN1CCCCC1`, the Tm shift activity is inactive: -0.018% [at 42 µM]. The value for `CC(=O)N(C)C[C@H]1Oc2ncc(C#C[C@H](C)O)cc2C(=O)N([C@@H](C)CO)C[C@@H]1C` was inactive: 0.023%.
